We go through 26 compounds from PubChem BioAssay AID1159614 (National Center for Advancing Translational Sciences (NCATS), 2016).

Screen size: about 45,000 compounds; about 65 (0.1%) were called active. Calls follow the shape of the dose curve; as a rule, active = well fitted activation curve with a large enough effect; inconclusive = small, poorly fitted or top-dose-only effect; inactive = no such curve, though single readings can be large or run the other way. The list shows a part of the results.

The test addresses Galactocerebrosidase (Homo sapiens) (UniProt P54803). Nature of the test: A Novel Cell-Based Assay to Identify Small Molecules for B -Galactocerebrosidase. Also: 0% is about no effect; nearly all actives have a fitted effect of over 65% in size. The following applies: 145M-Twi-hGALC-G270D cells (Twitcher mouse brain line with human GALC G270D), HMU-beta-Gal fluorescence, 48 h; series mostly up to 57.5 µM; activation: at the top concentration. The source says: Lysosomal storage diseases (LSDs) are caused by genetic mutations in genes encoding proteins important for normal lysosomal function. Globoid cell leukodystrophy (GLD), mostly known as Krabbe disease, is a prototype of the neurological LSDs caused by deficiency of beta-galactocerebrosidase (GALC). In brain specimens of GLD patients, psychosine levels are substantially elevated. At elevated concentrations, psychosine becomes cytotoxic to neuronal cells, particularly to oligodendrocytes (OLG), neural cells responsible for myelin formation. Therefore, the biochemical disturbances in GLD are manifested by different degrees of brain demyelination resulting in a broad spectrum of neurological manifestations. Most of the FDA-approved therapies are based on enzyme replacement therapeutic (ERT) agents, which treat non-neurological symptoms of Gaucher disease, Fabry disease, few mucopolysaccharidoses and Pompe disease. Unfortunately, in GLD, a primarily neurological LSD, ERT agents, as large molecular weight molecules unable to cross the blood-brain barrier, which makes this an inefficacious therapeutic approach. In GLD, increasing the residual GALC activity just above the critical threshold (~10% of wild type enzymatic activity), the cytotoxic levels of psychosine will be reduced, avoiding the OLGs apoptosis and the subsequent demyelination process. This will translate in disease stabilization and amelioration of GLD patient symptoms.
Sequence of UniProt P54803 (P54803 whole entry, looked up): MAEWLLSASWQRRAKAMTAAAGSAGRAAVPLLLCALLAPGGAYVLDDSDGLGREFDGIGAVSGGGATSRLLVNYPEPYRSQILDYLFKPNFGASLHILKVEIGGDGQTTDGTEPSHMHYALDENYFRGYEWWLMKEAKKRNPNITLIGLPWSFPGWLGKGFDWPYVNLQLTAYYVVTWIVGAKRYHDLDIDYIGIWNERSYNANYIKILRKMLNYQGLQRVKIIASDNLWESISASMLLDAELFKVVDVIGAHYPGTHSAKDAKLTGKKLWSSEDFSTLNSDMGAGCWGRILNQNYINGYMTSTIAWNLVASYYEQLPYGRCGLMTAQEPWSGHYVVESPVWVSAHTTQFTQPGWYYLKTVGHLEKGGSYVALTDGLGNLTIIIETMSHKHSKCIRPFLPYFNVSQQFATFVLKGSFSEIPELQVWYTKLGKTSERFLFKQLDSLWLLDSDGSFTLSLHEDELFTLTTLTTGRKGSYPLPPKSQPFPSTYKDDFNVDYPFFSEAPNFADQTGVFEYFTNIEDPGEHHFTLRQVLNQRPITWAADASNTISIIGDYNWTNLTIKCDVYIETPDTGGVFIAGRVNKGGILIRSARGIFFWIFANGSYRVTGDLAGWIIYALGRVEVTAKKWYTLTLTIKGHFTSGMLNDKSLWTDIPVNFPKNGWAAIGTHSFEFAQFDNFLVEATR
A cell-based assay in 1,536-well plate format was developed to implement a quantitative high-throughput screening (qHTS) assay using GLD-disease relevant cells to identify small molecules that produce enhancements of the residual enzymatic activity levels of mutants GALC found and prevalent in GLD patients. Compounds that are active may therefore have some therapeutic application for GLD. After the treatment of live cells for a determined period, using a fluorescent GALC specific substrate, the mutant residual GALC activity is measured. This cell-based qTHS assay was used to screen part of the MLPCN library for small molecule able to increase the mutant GALC enzymatic activity. In this assay, increased fluorescent signal corresponds to enhanced levels of mutant GALC residual enzymatic activity. Activation is the desired outcome for this assay.
NIH Chemical Genomics Center [NCGC]
NIH Molecular Libraries Probe Centers Network [MLPCN]
Assay Submitter (PI): Gustavo Maegawa MD,PhD, University of Florida, Gainesville, FL
2)#Two cell lines were established for the assay: 145M-Twi-hGALC-G270D (brain-derived Twitcher cell line stably expressing human GALC-G270D) and 145M-Twi-hGALC-WT (same 145M-Twi stably expressing human GALC wild type). The Twitcher is the murine C57B/6 model for GLD with naturally occurring homozygous nonsense GALC mutation. The 145M-Twi cell line was established at Maegawa lab (Ribbens J et al 2014).
a.#Media: DMEM/F12 (1:1) with 10% fetal bovine-serum (FBS) with penicillin/streptomycin (PS-1X - 100 I.U./mL of penicillin+100 ug/mL of streptomycin).
b.#The 6-Hexadecanoylamino-4-methylumbelliferyl-b-D-galactoside (HMU-B-gal) substrate was prepared as per Wiederschain et al 1992. Using 20-mL borosilicate tubes, 2.20 mg of HMU-b-Gal was added in each tube to prepare substrate-film with a final air-nitrogen stream evaporation to remove all diluent solvents.
c.#The HMUb-Gal substrate buffer consists of 0.2 M Na2HPO4 (sodium phosphate dibasic)/ 0.1 M Citric Acid with the pH adjusted to 5.2 using HCl. Sodium Azide at 0.02% and Sodium Taurocholate (NaTC) at 1 mg/mL were added to this substrate buffer.
d.#The HMU-b-Gal stopping buffer consist of 0.5 M NaHCO3 (sodium bicarbonate) /0.5 M Na2CO3 (sodium carbonate). […] Triton X-100 at 0.25% was added.
4)#Preparation of HMU-b-Gal substrate tubes
Adding 18.6 mL of the HMUb-Gal substrate buffer to each 20-mL tube (2.20 mg of HMU-b-Gal) will reach a concentration of 0.2 mM. Vortex well the tube until the solution is fully homogenized (clear cloudy solution). […]
Turning to `COc1ccc(CCNC(=O)c2cc3cccc4c3n2CC(C)S4)c(OC)c1OC` (stereo unspecified), the “activation” value was inactive: -2.07%.

For `CC(C)(C)OC(=O)N1CCC(c2c(C(=O)O)cnn2-c2ccc(F)cc2F)CC1`, the “activation” value is inactive: -9.41%.

Turning to `O=C(CN1C(=O)COc2ccc(S(=O)(=O)N3CCCCCC3)cc21)N1CCN(c2cccc(Cl)c2)CC1`, the “activation” value was inactive: -3.13%.

Take `COc1ccc(C(=O)c2cn(Cc3ccc(F)cc3)c3c(F)cc(F)cc3c2=O)cc1`: the “activation” value was inactive: -14.6%.

For the compound `Fc1ccc(-c2nnc(CN3CCN(c4ccccn4)CC3)o2)cc1`, the “activation” value is inactive: -12.2%.

For `O=C(C1COc2cc(S(=O)(=O)Nc3ccc(Cl)cc3)ccc2O1)N1CCCC1` (stereo unspecified), the “activation” value is inactive: -12.8%.

`CCc1ccc(S(=O)(=O)c2nnn3c2nc(N2CCN(CC)CC2)c2sccc23)cc1`: the “activation” value is inactive: -13.7%.

Turning to `CCC[C@H](N[C@@H](C)C(=O)N1[C@H](C(=O)O)C[C@@H]2CCCC[C@@H]21)C(=O)OCC`, the “activation” value is inactive: -14.5%.

For the compound `COc1ccccc1C(=O)Nc1ccc(-c2nc3cc(C)cc(C)c3o2)cc1`, the “activation” value was inactive: -7.56%.

On to `CCOC(=O)c1ccc(N2C(=O)c3n[nH]c(-c4ccco4)c3C2c2cccc(F)c2)cc1` (stereo unspecified), for which the “activation” value is inactive: -13.5%.

`Cc1ccc(NC(=O)CSc2nc3ccc(NC(=O)c4cccc(Cl)c4)cc3s2)c(C)c1`: the “activation” value was inactive: -7.41%.

`Cc1ccc(Cn2c(C)c(CNCc3ccccc3F)c(C(=O)O)c2C)cc1`: the “activation” value was inactive: -10.8%.

Turning to `CCc1ccccc1N(C)C(=O)c1cc2c(s1)-c1c(C)cccc1OC2`, the “activation” value is inactive: -13.5%.

Consider `COc1cc(C2C(C(=O)Nc3ccccc3)=C(C)Nc3nc(SCC(=O)c4ccc(C)cc4)nn32)ccc1O` (stereo unspecified), for which the “activation” value was inactive: -12.3%.

With `CC(C)NS(=O)(=O)c1ccc(OCC(=O)N2CCN(c3cccc(Cl)c3)CC2)cc1`, the “activation” value was inactive: -30.6%.

Take `O=C(Cn1ncc2c3ccccc3n(Cc3ccccc3)c2c1=O)NCc1ccccc1`: the “activation” value is inactive: -16.9%.

As for `COc1ccc(-c2nc3c(c(SCC(=O)Nc4cc(C)cc(C)c4)n2)Cc2c(CO)cnc(C)c2O3)cc1`, the “activation” value is inactive: -7.53%.

Regarding `COc1cccc(CN2C(=O)C3(SCC(=O)N3c3ccc(F)cc3)c3ccccc32)c1` (stereo unspecified), the “activation” value is inactive: -13.7%.

Regarding `Cc1ccc(CN(Cc2cccn2-c2nnc(N3CCCC3=O)s2)C(=O)Nc2cc(C)cc(C)c2)cc1`, the “activation” value was inactive: -1.02%.

Turning to `O=C(C1CCCN(S(=O)(=O)c2cccs2)C1)N1CCN(c2ccccc2F)CC1` (stereo unspecified), the “activation” value is inactive: -15.4%.

Take `CN1C(=O)c2ccccc2Sc2ccc(NC(=O)NCc3ccccc3Br)cc21`: the “activation” value is inactive: -15%.

As to `Cc1nc2sc(C)c(C)n2c(=O)c1S(=O)(=O)NCCc1ccc(Cl)cc1`, the “activation” value is inactive: -1.19%.

With `CC(=O)c1ccc(NC(=O)c2cn(C)c(=O)c3ccccc23)cc1`, the “activation” value was inactive: 21.2%.

Take `O=C(NCc1cccc(Cl)c1)c1ccc2c(c1)nc1n2CCOC1`: the “activation” value is inactive: -0.473%.

For `Cc1ccc(CN(Cc2ccco2)C(=O)c2ccccc2Cl)o1`, the “activation” value was inactive: -11.5%.

Turning to `Cc1cccc(C(=O)Nc2nc3c(s2)CCCC3)c1`, the “activation” value is inactive: -20.9%.
